{"source": "ChEMBL document CHEMBL4888484", "about": "“Replenishing the malaria drug discovery pipeline: Screening and hit evaluation of the MMV Hit Generation Library 1 (HGL1) against asexual blood stage Plasmodium falciparum ,using a nano luciferase reporter read-out” (2022)", "note": "Screen size: about 150,000 compounds; about 540 (0.36%) showed an effect of 50% or more. The list shows a part of the results.", "data": [{"tested_on": "Plasmodium falciparum", "assay": "Primary screen in NF54 nanoGlo assay, in single point, at 2uM, 72h; a lower Z score goes with more inhibition", "assay_type": "functional, Erythrocyte", "conditions": "timepoint 72 hour", "units": {"% Inhibition": "%"}, "values": [{"molecule": "Cc1cccc(C(=O)N2C[C@H](C(=O)O)[C@@H](c3ccccc3C)C2)n1", "% Inhibition": -3, "Z score": 0.6}, {"molecule": "CCCn1c(=O)c2sc(N3CCCCC3)nc2n(CC(=O)Nc2ccc(F)cc2Cl)c1=O", "% Inhibition": -26, "Z score": 2.27}, {"molecule": "COc1ccc(NC(=O)c2scc(-c3cccc(F)c3)c2S(=O)(=O)N(C)c2ccccc2)cc1", "% Inhibition": 14, "Z score": -1.55}, {"molecule": "COc1ncccc1CNC(=O)N1CCC1", "% Inhibition": -4, "Z score": 0.77}, {"molecule": "O=C(CC1CC2CCC1C2)Nc1ccccc1C1CCC(=O)N1", "note": "(configuration not stated)", "% Inhibition": 16, "Z score": -1.83}, {"molecule": "Cn1c(=O)c2c(nc3n(-c4ccc(O)cc4)c(-c4ccccc4)cn23)n(C)c1=O", "% Inhibition": 27, "Z score": -3.08}, {"molecule": "C/C(=C\\c1cc(Cl)ccc1O)CN1CCC2(CC1)CNC(=O)C2", "% Inhibition": 18, "Z score": -2.29}, {"molecule": "CC(Oc1cccc(C#N)c1)C(=O)N1CCOC2CCCCC21", "note": "(configuration not stated)", "% Inhibition": -4, "Z score": 0.49}, {"molecule": "CC(C)Cc1ccc(C(=O)Nc2csc(C(N)=O)c2)s1", "% Inhibition": 4, "Z score": -0.48}, {"molecule": "CN(Cc1ccc2cn[nH]c2c1)C1CCOC(c2ccc(F)cc2)C1", "note": "(configuration not stated)", "% Inhibition": -14, "Z score": 1.63}, {"molecule": "Cc1nc(N(C)C)nc(N2C[C@H](O)[C@@H](N(C)C)C2)n1", "% Inhibition": -2, "Z score": 0.33}, {"molecule": "CC(Oc1cccnc1)C(=O)N1CCCCC1c1ncon1", "note": "(configuration not stated)", "% Inhibition": -1, "Z score": 0.14}, {"molecule": "CC(C)(C)OC(=O)NCc1cccc(NCc2ncc[nH]2)c1", "% Inhibition": -6, "Z score": 0.81}, {"molecule": "COC1(CNC(=O)Nc2ccccc2N(C)C)CCC1", "% Inhibition": -10, "Z score": 1.66}, {"molecule": "CC(C)(O)C1CCN(Cc2ccc3cc[nH]c3n2)CC1", "% Inhibition": 3, "Z score": -0.58}, {"molecule": "C[C@@H](C(=O)Nc1ncccc1O)n1nc2c(cc1=O)CCC2", "% Inhibition": 10, "Z score": -1.35}, {"molecule": "COCCc1noc(-c2nc(-c3ccccc3)no2)n1", "% Inhibition": -3, "Z score": 0.57}, {"molecule": "CC(C)c1nnc(NCCc2nccs2)s1", "% Inhibition": 4, "Z score": -0.59}, {"molecule": "CN(C)c1ccc(C2=Nc3ccccc3C(c3ccccc3)(c3ccccc3)N2)cc1", "% Inhibition": 12, "Z score": -1.86}, {"molecule": "Cc1cc(S(N)(=O)=O)c(C)cc1N", "% Inhibition": 5, "Z score": -0.5}, {"molecule": "CN(C)[C@@H](C(=O)N1CCC(C(=O)N2CCCC2)CC1)c1ccc2c(c1)OCO2", "% Inhibition": -6, "Z score": 1.11}, {"molecule": "O=C(NCc1ccccn1)NCC1(c2ccccc2)CC1", "% Inhibition": -13, "Z score": 1.66}, {"molecule": "O=C(c1c[nH]c(=O)c(Br)c1)N1CCN(C2CCC2)CC1", "% Inhibition": -10, "Z score": 1.48}, {"molecule": "CC(C)[C@@H](CO)NC(=O)Nc1c(C(F)(F)F)nn(C)c1Cl", "% Inhibition": 14, "Z score": -1.79}, {"molecule": "Cc1ccc2nc(Cc3ccccc3)c(NC(=O)c3cccc(Cl)c3)n2c1", "% Inhibition": -11, "Z score": 1.5}, {"molecule": "Cc1nnc(CNS(=O)(=O)c2cccc(C(=O)Nc3cccnc3)c2)o1", "% Inhibition": -24, "Z score": 2.11}, {"molecule": "C[C@H]1COc2ccc(CN3CCCC3)cc2CN1C(=O)C1CCC1", "% Inhibition": -14, "Z score": 1.21}, {"molecule": "O=C1c2cccnc2CN1CCC(c1ccccc1)c1ccccc1", "% Inhibition": -14, "Z score": 1.31}, {"molecule": "COc1cncc(C(=O)N2CC[C@@H](C(F)(F)F)n3nc(C)cc32)n1", "% Inhibition": -6, "Z score": 1.25}, {"molecule": "COC(=O)c1cc(CNC(=O)c2cncs2)cc(NS(=O)(=O)c2ccc(F)cc2)c1", "% Inhibition": 1, "Z score": -0.08}, {"molecule": "CCCc1c(C(=O)Nc2ccc(F)c(N3CCCC3=O)c2)[nH]c(C)c1C(=O)OC", "% Inhibition": 4, "Z score": -0.66}, {"molecule": "Cc1ccn(CC(=O)NC2CN(Cc3ccccc3)CC2C)c(=O)c1", "note": "(configuration not stated)", "% Inhibition": -18, "Z score": 2.42}, {"molecule": "Cc1[nH]c(CN(C)Cc2cscn2)cc1C#N", "% Inhibition": -8, "Z score": 1.36}, {"molecule": "CCn1nc(C)c(CNC[C@@H](O)c2ccc(C(F)(F)F)cc2)c1C", "% Inhibition": 17, "Z score": -3.25}, {"molecule": "CCCCN(CC)C(=O)CCCc1nc(C)cs1", "% Inhibition": 0, "Z score": -0.02}, {"molecule": "CC(C)(CNC(=O)c1ccccc1-n1ccnn1)N1CCOCC1", "% Inhibition": 0, "Z score": -0.03}, {"molecule": "COc1ncccc1CNC(=O)CC1CCN(C(C)=O)CC1", "% Inhibition": 30, "Z score": -3.35}, {"molecule": "O=C(c1ccccc1)C1C(c2ccccc2)N1C(=O)c1cccc(Cl)c1", "note": "(configuration not stated)", "% Inhibition": -7, "Z score": 0.84}, {"molecule": "O=C(Nc1ccccc1Oc1ccccc1Cl)[C@H]1CCCN(C(=O)c2cccs2)C1", "% Inhibition": -13, "Z score": 1.9}, {"molecule": "O=C1[C@H]2CN(Cc3ccccc3)C[C@H]2C(=O)N1CCc1ccccc1", "% Inhibition": 0, "Z score": 0.03}, {"molecule": "COc1ccc2c(c1)OC[C@]1(CO)CN(Cc3noc(C4CCCC4)n3)C[C@H]21", "% Inhibition": -25, "Z score": 2.39}, {"molecule": "Cc1c(NC(=O)c2cnn(Cc3ccccc3)c2)c(N2CCCC2)nn1C", "% Inhibition": -9, "Z score": 1.67}, {"molecule": "CC[C@H](Nc1nc(-c2ccco2)nc2c1CCNCC2)c1ccnn1C", "% Inhibition": 11, "Z score": -1.26}, {"molecule": "Cc1ncc(CN(C)C(=O)Nc2ccc(-n3cncn3)nc2)s1", "% Inhibition": -13, "Z score": 2.5}, {"molecule": "O=C(NCCC1=CCCCC1)c1ccc(-n2nc3c(c2-c2cccc(C(F)(F)F)c2)CCC3)cc1", "% Inhibition": -5, "Z score": 0.73}, {"molecule": "CCn1ncnc1-c1c(-c2ccccc2)ncn1Cc1nnc(C)o1", "% Inhibition": -17, "Z score": 1.86}, {"molecule": "Cc1ccc(NC(=O)Cn2cc(S(=O)(=O)N3CCOCC3)ccc2=O)c(C)c1", "% Inhibition": -4, "Z score": 0.79}, {"molecule": "O=C(Cn1nc(-c2ccncc2)ccc1=O)NCc1ccccc1", "% Inhibition": -19, "Z score": 2.41}, {"molecule": "OC(CC1COCCN1)c1ccccc1", "note": "(configuration not stated)", "% Inhibition": 35, "Z score": -0.57}, {"molecule": "Cc1csc(N(C(=O)c2cn3ccnc3s2)C2CC2)n1", "% Inhibition": -6, "Z score": 0.61}, {"molecule": "CCNCc1cc(Br)c(OCC)c(Br)c1", "% Inhibition": 29, "Z score": -3.84}, {"molecule": "COc1ccccc1-n1nc(C(C)C)nc1Cn1nnnc1N", "% Inhibition": -8, "Z score": 1.12}, {"molecule": "O=C(Nc1cn[nH]c1)[C@@H]1CN(Cc2nc3ccccc3c(=O)[nH]2)CCO1", "% Inhibition": -11, "Z score": 1.72}, {"molecule": "O=C(Nc1nc2ccccc2s1)c1ccc2c(c1)CCNCC2", "% Inhibition": -5, "Z score": 0.75}, {"molecule": "CCOc1ccc(CNS(=O)(=O)c2ccc(C(=O)N3CCCC3)s2)cc1OC", "% Inhibition": -9, "Z score": 1.76}, {"molecule": "COc1ccc(Cl)c(S(=O)(=O)NCCc2nc(-c3ccc(F)cc3)c[nH]2)c1", "% Inhibition": -3, "Z score": 0.44}, {"molecule": "CC1CCN(C(=O)C(=O)N2CCN(c3nc(C(C)C)c4c(c3C#N)CCCC4)CC2)CC1", "% Inhibition": -1, "Z score": 0.12}, {"molecule": "CCN(CC)C(=O)Cn1cc(C(=O)N2CCN(Cc3ccc(OC)cc3)C(=O)C2)nn1", "% Inhibition": -11, "Z score": 1.57}, {"molecule": "COCC[C@H]1CN(Cc2ccc3c(c2)OCCO3)CCO1", "% Inhibition": -8, "Z score": 1.17}, {"molecule": "CCOC(=O)c1cc(-c2ccccc2)n(NC(=O)COc2ccc(Cl)cc2)c1C", "% Inhibition": 39, "Z score": -5.05}, {"molecule": "Cc1cc(CNC(=O)[C@@H]2CC3(CN(Cc4ccccc4)C3)CN2C)n(C)n1", "% Inhibition": -7, "Z score": 1.16}, {"molecule": "CC(=O)NCCOc1ccc(-c2nc(C)nn2-c2ccccn2)cc1", "% Inhibition": -18, "Z score": 1.99}, {"molecule": "CC(=O)c1ccc(-n2cc(-c3ccccc3)cc2-c2ccccc2)cc1", "% Inhibition": 7, "Z score": -0.93}, {"molecule": "CCC1(CC)CN(C(=O)CCS(C)(=O)=O)c2ccccc21", "% Inhibition": -5, "Z score": 0.8}, {"molecule": "Cc1ccc(Cl)cc1NS(=O)(=O)N(C)C", "% Inhibition": 4, "Z score": -0.83}, {"molecule": "O=C(c1cn[nH]c1)N1CC[C@@](O)(c2ccccc2)C1", "% Inhibition": -5, "Z score": 0.85}, {"molecule": "CC1CCCN(C(=O)C2CCN(C)CC2)C1CN", "note": "(configuration not stated)", "% Inhibition": -6, "Z score": 0.69}, {"molecule": "O[C@H](CN1CCOCC1)Cn1c2c(c3cccc(Cl)c31)CCCC2", "% Inhibition": -10, "Z score": 1.32}, {"molecule": "COCc1ccccc1S(=O)(=O)Nc1cc(N(C)C)ccc1C#N", "% Inhibition": -8, "Z score": 1.53}, {"molecule": "c1ccc(-c2cc(NC3C4CCCCC43)n3ncnc3n2)cc1", "note": "(configuration not stated)", "% Inhibition": -13, "Z score": 1.45}, {"molecule": "CCC1CN(Cc2ncc(C)o2)C(CC)CN1Cc1ncc(C)o1", "note": "(configuration not stated)", "% Inhibition": -7, "Z score": 0.61}, {"molecule": "Cc1ccn2cc(C(=O)N(CCN3CCOCC3)Cc3ccco3)nc2c1", "% Inhibition": -4, "Z score": 0.83}, {"molecule": "CC1(C)CCCC[C@@H]1NC(=O)Cc1ccnc(O)c1Br", "% Inhibition": 0, "Z score": -0.04}, {"molecule": "Cc1c([C@H](C)NC(=O)N2CCC(C(N)=O)CC2)sc2ccccc12", "% Inhibition": -3, "Z score": 0.42}, {"molecule": "Cc1nc(O)[nH]c(=O)c1S(=O)(=O)N1CCN(Cc2ccccc2)CC1", "% Inhibition": -1, "Z score": 0.13}, {"molecule": "CCCc1cc(NC(=O)N[C@@H]2c3ccccc3OC[C@@H]2CO)n(C)n1", "% Inhibition": -5, "Z score": 0.85}, {"molecule": "N#CC1CCC(NC2CCCC23CCOCC3)C1", "note": "(configuration not stated)", "% Inhibition": 6, "Z score": -0.7}, {"molecule": "O=C1C[C@@H](C(=O)Nc2ccc(OC(F)(F)F)cc2)n2cnnc2N1", "% Inhibition": 16, "Z score": -2.01}, {"molecule": "COc1ccc(Cc2nnc(C(=O)NCc3ccc4c(c3)OCO4)o2)cc1OC", "% Inhibition": 4, "Z score": -0.59}, {"molecule": "CC1c2ccccc2OC1C(=O)N1CCN2C(=O)NC(=O)C2C1", "note": "(configuration not stated)", "% Inhibition": -5, "Z score": 0.55}, {"molecule": "COc1ccc(-c2n[nH]c(C3CCCCC3)n2)c(OC)c1", "% Inhibition": -6, "Z score": 0.77}, {"molecule": "CCn1ncc(C(=O)N2CCCC3c4nc[nH]c4CCC32)c1C", "note": "(configuration not stated)", "% Inhibition": -4, "Z score": 0.73}, {"molecule": "CN1CCC(NC(=O)NC2CCCCC2Oc2ccccc2)C1=O", "note": "(configuration not stated)", "% Inhibition": 11, "Z score": -1.37}, {"molecule": "COc1ccc(OC)c(N2CCN(C(=O)Nc3ccc(C)cc3)[C@@H](C)C2=O)c1", "% Inhibition": -4, "Z score": 0.5}, {"molecule": "Cc1n[nH]c(=O)c2c1cnn2-c1ccccc1", "% Inhibition": 21, "Z score": -2.61}, {"molecule": "O=C1CCC2(CCN(Cc3cncnc3)CC2)CN1[C@H]1CC[C@H](O)CC1", "% Inhibition": -5, "Z score": 1.03}]}]}
